In US20110212116A1, “IMMUNOGENIC PEPTIDES AND USES THEREOF” (Cancer Research Technology Limited, priority 2008, published 2011):

Key:
[1] = biological target: HLA-A2 molecules on the surface of T2 cells (Homo sapiens, UniProt P04439, D140Y/D185E/D98H/E176V/E277Q/G131W/G231S/I119V/I121R/I166T/I218V/L300P/L318F/N151K/N90K/P208A/P217A/Q86G/Q94H/R138H/R169H/T345S); assay: T2 assay: stabilisation of HLA-A2 on T2 cells by peptide (FACS); assay type: binding; settings: overnight incubation with peptide, anti-HLA-A2-FITC, mean fluorescence
[2] = biological target: T1, HLA-A*0201 molecules on the surface of T2 cells (human); assay: T2 cell HLA-A2 stabilisation, FACS
T1 construct: whole, on cells; Empty or weakly loaded class I molecule on T2 cells; also called HLA-A2; MHC class I

| Molecule | Stabilisation of HLA-A2 molecules on the surface of T2 cells (binding to HLA-A2) [1] | binding result [2] |
| --- | --- | --- |
| KIQEQLQMV [P1, wild type control nonamer located in the human CLOCK gene, reference compound] | showed binding | – |
| P14: modified PASD1 peptide, SEQ ID NO 21, derivative of wild type peptide P8 (RLWQELSDI; Synthetic sequence amino acid sequence p14) | greatest stabilisation | – |
| KIQEQLQMV [Peptide 1 (P1), wild type CLOCK peptide] | – | binds |
